Laboratory results: the supplement of paper PMC4604168 (melanoma cell lines)
The other results are listed elsewhere or left out. Repeats are few or missing, and single values can be far off.

Experiments:
Experiment in all cases: cell count relative to DMSO control; melanoma cells; higher = more viable cells
Conditions in all cases: library dose: standard library concentration; 72 h
[1] = tested on: A101D
[2] = tested on: A2058
[3] = tested on: A375
[4] = tested on: 501Mel
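Note: cells treated in 1,536-well plates, then fixed and DAPI-stained, with nuclei counted from automated high-throughput microscope images.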

SMILES: O=C(/C=C/c1cccnc1)NCCCCC1CCN(C(=O)c2ccccc2)CC1 + CCCS(=O)(=O)Nc1ccc(F)c(C(=O)c2c[nH]c3ncc(Cl)cc23)c1F [PLX4720] (first compound 0.05 µM, partner dose 0.4 µM)
- cell count [1]: 66.8%
- cell count [2]: 98.5%
- cell count [3]: 93.4%

SMILES: CC1(C)CCC(c2ccc(Cl)cc2)=C(CN2CCN(c3ccc(C(=O)NS(=O)(=O)c4ccc(N[C@H](CCN5CCOCC5)CSc5ccccc5)c(S(=O)(=O)C(F)(F)F)c4)cc3)CC2)C1 + O=c1cc(-c2cccc3c2Sc2ccccc2S3)oc(N2CCOCC2)c1 [KU55933] (first compound 2 µM, partner dose 5 µM)
- cell count [4]: 78.9%
- cell count [1]: 36.8%
- cell count [2]: 78.1%
- cell count [3]: 81.5%

SMILES: Cc1ccc(Nc2nccc(N(C)c3ccc4c(C)n(C)nc4c3)n2)cc1S(N)(=O)=O [Pazopanib] + O=C(CCCCCCC(=O)Nc1ccccc1)NO [vorinostat] (first compound 2 µM, partner dose 0.4 µM)
- cell count [1]: 74.3%
- cell count [2]: 94.3%
- cell count [3]: 121%

SMILES: Cc1ccc(Nc2nccc(N(C)c3ccc4c(C)n(C)nc4c3)n2)cc1S(N)(=O)=O [Pazopanib] + Cn1cncc1[C@@](N)(c1ccc(Cl)cc1)c1ccc2c(c1)c(-c1cccc(Cl)c1)cc(=O)n2C [tipifarnib] (first compound 2 µM, partner dose 0.05 µM)
- cell count [1]: 64.7%
- cell count [2]: 81.4%
- cell count [3]: 89.7%

SMILES: O=C(/C=C/c1cccnc1)NCCCCC1CCN(C(=O)c2ccccc2)CC1 + CCc1ccc(CCOc2ccc(CC3SC(=O)NC3=O)cc2)nc1 [pioglitazone] (first compound 0.05 µM, partner dose 10 µM)
- cell count [4]: 67.9%
- cell count [1]: 98.1%
- cell count [2]: 85.6%
- cell count [3]: 123%

SMILES: O=C(/C=C/c1cccnc1)NCCCCC1CCN(C(=O)c2ccccc2)CC1 + O=c1cc(-c2cccc3c2Sc2ccccc2S3)oc(N2CCOCC2)c1 [KU55933] (first compound 0.05 µM, partner dose 5 µM)
- cell count [4]: 78.8%
- cell count [1]: 72.7%
- cell count [2]: 81.8%
- cell count [3]: 106%

SMILES: O=C(/C=C/c1cccnc1)NCCCCC1CCN(C(=O)c2ccccc2)CC1 + CCN(CC)CCNC(=O)c1c(C)[nH]c(/C=C2\C(=O)Nc3ccc(F)cc32)c1C [sunitinib] (first compound 0.05 µM, partner dose 2 µM)
- cell count [1]: 58.1%
- cell count [2]: 69.6%
- cell count [3]: 90.6%

SMILES: Cc1ccc(Nc2nccc(N(C)c3ccc4c(C)n(C)nc4c3)n2)cc1S(N)(=O)=O [Pazopanib] + COc1ccc(C2=N[C@@H](c3ccc(Cl)cc3)[C@@H](c3ccc(Cl)cc3)N2C(=O)N2CCNC(=O)C2)c(OC(C)C)c1 [Nutlin-3] (first compound 2 µM, partner dose 0.5 µM)
- cell count [1]: 63.9%
- cell count [2]: 88.5%
- cell count [3]: 64.3%

SMILES: Cc1ccc(Nc2nccc(N(C)c3ccc4c(C)n(C)nc4c3)n2)cc1S(N)(=O)=O [Pazopanib] + NCC(=O)Nc1ccc(-n2nc(C(F)(F)F)cc2-c2ccc3c(ccc4ccccc43)c2)cc1 [OSU03012] (first compound 2 µM, partner dose 5 µM)
- cell count [1]: 51.4%
- cell count [2]: 102%
- cell count [3]: 55.4%

SMILES: O=C(/C=C/c1cccnc1)NCCCCC1CCN(C(=O)c2ccccc2)CC1 + CO[C@H]1C[C@@H]2CC[C@@H](C)[C@@](O)(O2)C(=O)C(=O)N2CCCC[C@H]2C(=O)O[C@H]([C@H](C)C[C@@H]2CC[C@@H](OCCO)[C@H](OC)C2)CC(=O)[C@H](C)/C=C(\C)[C@@H](O)[C@@H](OC)C(=O)[C@H](C)C[C@H](C)/C=C/C=C/C=C/1C [everolimus] (first compound 0.05 µM, partner dose 0.1 µM)
- cell count [1]: 82.8%
- cell count [2]: 77.9%
- cell count [3]: 92.7%

SMILES: CC1(C)CCC(c2ccc(Cl)cc2)=C(CN2CCN(c3ccc(C(=O)NS(=O)(=O)c4ccc(N[C@H](CCN5CCOCC5)CSc5ccccc5)c(S(=O)(=O)C(F)(F)F)c4)cc3)CC2)C1 + C=CCn1c(=O)c2cnc(Nc3ccc(N4CCN(C)CC4)cc3)nc2n1-c1cccc(C(C)(C)O)n1 [MK1775] (first compound 2 µM, partner dose 0.1 µM)
- cell count [1]: 19%
- cell count [2]: 75.4%
- cell count [3]: 36.7%

SMILES: CC1(C)CCC(c2ccc(Cl)cc2)=C(CN2CCN(c3ccc(C(=O)NS(=O)(=O)c4ccc(N[C@H](CCN5CCOCC5)CSc5ccccc5)c(S(=O)(=O)C(F)(F)F)c4)cc3)CC2)C1 + CNC(=O)c1cc(Oc2ccc(NC(=O)Nc3ccc(Cl)c(C(F)(F)F)c3)cc2)ccn1 [sorafenib] (first compound 2 µM, partner dose 2 µM)
- cell count [1]: 56.2%
- cell count [2]: 98.5%
- cell count [3]: 88.7%

SMILES: O=C(/C=C/c1cccnc1)NCCCCC1CCN(C(=O)c2ccccc2)CC1 + CCN(CC)CCCCNc1ncc2cc(-c3cc(OC)cc(OC)c3)c(NC(=O)NC(C)(C)C)nc2n1 [PD173074] (first compound 0.05 µM, partner dose 0.5 µM)
- cell count [1]: 75.7%
- cell count [2]: 86.8%
- cell count [3]: 126%

SMILES: O=C(/C=C/c1cccnc1)NCCCCC1CCN(C(=O)c2ccccc2)CC1 + Nc1ncn([C@H]2C[C@H](O)[C@@H](CO)O2)c(=O)n1 [decitabine] (first compound 0.05 µM, partner dose 0.5 µM)
- cell count [1]: 82.8%
- cell count [2]: 86.8%
- cell count [3]: 84.1%

SMILES: O=C(/C=C/c1cccnc1)NCCCCC1CCN(C(=O)c2ccccc2)CC1 + CC(=O)O[C@@]12CO[C@@H]1C[C@H](O)[C@@]1(C)C(=O)[C@H](O)C3=C(C)[C@@H](OC(=O)[C@H](O)[C@@H](NC(=O)OC(C)(C)C)c4ccccc4)C[C@@](O)([C@@H](OC(=O)c4ccccc4)[C@H]21)C3(C)C [Docetaxel] (first compound 0.05 µM, partner dose 0.0005 µM)
- cell count [1]: 49.1%
- cell count [2]: 9.45%
- cell count [3]: 77.5%

SMILES: Cc1ccc(Nc2nccc(N(C)c3ccc4c(C)n(C)nc4c3)n2)cc1S(N)(=O)=O [Pazopanib] + CCCS(=O)(=O)Nc1ccc(F)c(C(=O)c2c[nH]c3ncc(Cl)cc23)c1F [PLX4720] (first compound 2 µM, partner dose 0.4 µM)
- cell count [1]: 79%
- cell count [2]: 117%
- cell count [3]: 108%

SMILES: Cc1ccc(Nc2nccc(N(C)c3ccc4c(C)n(C)nc4c3)n2)cc1S(N)(=O)=O [Pazopanib] + O=C(Nc1cccc(Cl)c1)Nc1ncc(CCNc2ncnc3ccsc23)s1 [SNS314] (first compound 2 µM, partner dose 0.004 µM)
- cell count [1]: 61.8%
- cell count [2]: 82.7%
- cell count [3]: 90.1%

SMILES: Cc1ccc(Nc2nccc(N(C)c3ccc4c(C)n(C)nc4c3)n2)cc1S(N)(=O)=O [Pazopanib] + Nc1cccc2c1CN(C1CCC(=O)NC1=O)C2=O [lenalidomide] (first compound 2 µM, partner dose 5 µM)
- cell count [1]: 92.7%
- cell count [2]: 100%
- cell count [3]: 110%

SMILES: CC1(C)CCC(c2ccc(Cl)cc2)=C(CN2CCN(c3ccc(C(=O)NS(=O)(=O)c4ccc(N[C@H](CCN5CCOCC5)CSc5ccccc5)c(S(=O)(=O)C(F)(F)F)c4)cc3)CC2)C1 + C[C@@H]1CCN(C(=O)CC#N)C[C@@H]1N(C)c1ncnc2[nH]ccc12 [CP690550] (first compound 2 µM, partner dose 5 µM)
- cell count [1]: 59.7%
- cell count [2]: 103%
- cell count [3]: 84%

SMILES: Cc1ccc(Nc2nccc(N(C)c3ccc4c(C)n(C)nc4c3)n2)cc1S(N)(=O)=O [Pazopanib] + Cn1cnc2c(F)c(Nc3ccc(Br)cc3Cl)c(C(=O)NOCCO)cc21 [selumetinib] (first compound 2 µM, partner dose 0.075 µM)
- cell count [1]: 76.1%
- cell count [2]: 87.2%
- cell count [3]: 100%

SMILES: Cc1ccc(Nc2nccc(N(C)c3ccc4c(C)n(C)nc4c3)n2)cc1S(N)(=O)=O [Pazopanib] + CO[C@@H]1[C@H](N(C)C(=O)c2ccccc2)C[C@H]2O[C@]1(C)n1c3ccccc3c3c4c(c5c6ccccc6n2c5c31)C(=O)NC4 [Midostaurin] (first compound 2 µM, partner dose 0.4 µM)
- cell count [1]: 68.9%
- cell count [2]: 65.8%
- cell count [3]: 76.3%

SMILES: CC1(C)CCC(c2ccc(Cl)cc2)=C(CN2CCN(c3ccc(C(=O)NS(=O)(=O)c4ccc(N[C@H](CCN5CCOCC5)CSc5ccccc5)c(S(=O)(=O)C(F)(F)F)c4)cc3)CC2)C1 + Cn1cncc1[C@@](N)(c1ccc(Cl)cc1)c1ccc2c(c1)c(-c1cccc(Cl)c1)cc(=O)n2C [tipifarnib] (first compound 2 µM, partner dose 0.05 µM)
- cell count [1]: 38.2%
- cell count [2]: 85.5%
- cell count [3]: 63.9%

SMILES: CC1(C)CCC(c2ccc(Cl)cc2)=C(CN2CCN(c3ccc(C(=O)NS(=O)(=O)c4ccc(N[C@H](CCN5CCOCC5)CSc5ccccc5)c(S(=O)(=O)C(F)(F)F)c4)cc3)CC2)C1 + NC(=O)Nc1cc(-c2cccc(F)c2)sc1C(=O)N[C@H]1CCCNC1 [AZD7762] (first compound 2 µM, partner dose 0.1 µM)
- cell count [1]: 27.9%
- cell count [2]: 91.4%
- cell count [3]: 33.2%

SMILES: Cc1ccc(Nc2nccc(N(C)c3ccc4c(C)n(C)nc4c3)n2)cc1S(N)(=O)=O [Pazopanib] + COCC[n+]1c2c(n(Cc3cnccn3)c1C)C(=O)c1ccccc1C2=O [YM155] (first compound 2 µM, partner dose 0.002 µM)
- cell count [1]: 56.4%
- cell count [2]: 15.4%
- cell count [3]: 67.2%

SMILES: Cc1ccc(Nc2nccc(N(C)c3ccc4c(C)n(C)nc4c3)n2)cc1S(N)(=O)=O [Pazopanib] + C#Cc1cccc(Nc2ncnc3cc(OCCOC)c(OCCOC)cc23)c1 [erlotinib] (first compound 2 µM, partner dose 4 µM)
- cell count [1]: 64.6%
- cell count [2]: 66.9%
- cell count [3]: 79%

SMILES: CC1(C)CCC(c2ccc(Cl)cc2)=C(CN2CCN(c3ccc(C(=O)NS(=O)(=O)c4ccc(N[C@H](CCN5CCOCC5)CSc5ccccc5)c(S(=O)(=O)C(F)(F)F)c4)cc3)CC2)C1 + Cn1cnc2c(F)c(Nc3ccc(Br)cc3Cl)c(C(=O)NOCCO)cc21 [selumetinib] (first compound 2 µM, partner dose 0.075 µM)
- cell count [1]: 46.6%
- cell count [2]: 101%
- cell count [3]: 79.9%
